The values below come from article PMC13083723 (Patterns, 2026).

The structures appear in SMILES notation. Among all 5,400 compounds or so, about 190 (3.5%) showed an effect of 50% or more. This is one part of the list.

This assay relates to Vero-E6. Nature of the assay: primary screen, phospholipidosis by LipidTOX staining; higher = more effect of the substance. The note with it: 10 µM. In outline: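 Single-concentration screen at 10 μM, with DMSO 0.1 v/v % and amiodarone 10 μM as controls. Read-out is LipidTOX Red phospholipid staining, which tolerates aldehyde fixation, in Vero-E6 cells.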
With `Oc1ccc(Cl)cc1`, the result_ITMP is -4.68%.
Consider `CN1CC[C@@]2(C)c3cc(OC(=O)Nc4ccccc4)ccc3N(C)[C@@H]12`, for which the result_ITMP is on record as -9.99%.
Turning to `CC(C)(C)/[N+]([O-])=C/c1ccc(S(=O)(=O)[O-])cc1S(=O)(=O)[O-]`, the result_ITMP was -0.44%.
With `CC(=O)N1N=C(c2ccc(N)cc2)c2cc3c(cc2C[C@H]1C)OCO3`, the result_ITMP is reported as -1.29%.
For the molecule `Cn1ncnc1COc1nn2c(-c3c(F)cccc3F)nnc2cc1C1CCC1`, the result_ITMP is -9.74%.
Turning to `CS(=O)(=O)CS(=O)(=O)OCCCl`, the result_ITMP stood at 5.67%.
The same measure for `Nc1nc(Nc2ccc3c(c2)CC[C@@H](N2CCCC2)CC3)nn1-c1cc2c(nn1)-c1ccccc1CCC2`: 32.1%.
With `NNCCc1ccccc1`, the result_ITMP is -4.17%.
With `COc1ccc(Cl)c(Nc2ncnc3cc(OCC4CCN(C)CC4)c(OC)cc23)c1`, the result_ITMP is on record as 9.6%.
For the molecule `CCCCCCCCCCCCCCCC(=O)OC(C)C`, the result_ITMP was determined as 7.15%.
With `CC(C)c1c(CN(C)C(C)Cc2ccccc2)n(C)n(-c2ccccc2)c1=O` (stereo not shown), the result_ITMP was found to be 2.22%.
Turning to `C#Cc1cccc(Nc2ncnc3cc(OC)c(OCCCCCCC(=O)NO)cc23)c1`, the result_ITMP was -2.48%.
With `C[n+]1c2cc(N)ccc2cc2ccc(N)cc21.Nc1ccc2cc3ccc(N)cc3nc2c1`, the result_ITMP came to 0.92%.
`O=C(O)C1CN(Cc2ccc(-c3nc4cc(Cc5ccccc5F)ccc4s3)c(F)c2)C1`: the result_ITMP is recorded as -6.21%.
Turning to `CC(=O)S[C@@H]1CC2=CC(=O)CC[C@]2(C)[C@H]2CC[C@@]3(C)[C@@H](CC[C@@]34CCC(=O)O4)[C@H]12`, the result_ITMP was -3%.
The same measure for `CCOC(=O)C1=C(C)NC2=C(C(=O)CC(C)(C)C2)C1c1ccc(-c2ccccc2)cc1` (stereo not shown): 3.49%; for `Nc1ncnc2c1c(-c1cccc(OCc3ccccc3)c1)cn2[C@H]1C[C@@H](CN2CCC2)C1`: 69.4%; for `COc1cccc2c1c(O)c(C(=O)N(C)c1ccc(C(F)(F)F)cc1)c(=O)n2C`: -2.34%.
The same measure for `FC(F)(F)c1ccc(CNc2ccc(Cc3c[nH]c4ncccc34)cn2)cc1`: -4.34%.
Take `CCCc1cc(C(N)=S)ccn1`: the result_ITMP came out at 1.13%.
As to `COc1cc2c(Nc3ccc(NC(=O)c4ccccc4)cc3)ncnc2cc1OCCCN1CCOCC1`, the result_ITMP is on record as -3.61%.
The same measure for `CC(C)CNc1ccnc(NCc2csc(-c3ccccc3)n2)n1`: 46.9%; for `CC(=O)Nc1ccc(C(=O)Nc2ccccc2N)cc1`: 10%.
The value for `CC(Cc1cccc(C(F)(F)F)c1)NCCOC(=O)c1ccccc1` (stereo not shown) was 6.92%; that for `Cc1ccnc(NC(=O)C(C)c2cccc(C(=O)c3ccccc3)c2)c1` (stereo not shown) was -3.2%.
For the molecule `N=C(N)NC(=N)Nc1cccc(Cl)c1`, the result_ITMP is 6.24%.
Regarding `COc1cc2c(NC3CCN(C(C)C)CC3)nc(C3CCCCC3)nc2cc1OCCCN1CCCC1`, the result_ITMP stood at 60.7%.
For the molecule `O=C(O)[C@]1(Cc2cccc(Nc3nccs3)n2)CC[C@@H](Oc2cccc(Cl)c2F)CC1`, the result_ITMP was 3.96%.
As to `COc1ccc2c(c1OC)C(=O)O[C@H]2[C@H]1c2c(cc3c(c2OC)OCO3)CCN1C`, the result_ITMP is -1.85%.
For `COc1c2occc2cc2ccc(=O)oc12`, the result_ITMP is 11.7%.
Turning to `N=C(NCCCCCCNC(=N)NC(=N)Nc1ccc(Cl)cc1)NC(=N)Nc1ccc(Cl)cc1`, the result_ITMP turned out to be 26.4%.
On to `NCc1ccccc1CC(=O)N[C@@H]1C(=O)N2C(C(=O)O)=C(CSc3nnnn3CC(=O)O)CS[C@H]12`, for which the result_ITMP is on record as -2.42%.
Consider `Cn1c(=O)c2c(ncn2CC(=O)Nc2ccc(-c3ccccc3)nn2)n(C)c1=O`, for which the result_ITMP is reported as -2.21%.
For `CCc1ccccc1OC[C@@H](O)CN[C@H]1CCCc2ccccc21`, the result_ITMP amounted to 39.1%.
The value for `CC(C)CC(N)=O` was -2.37%; that for `Cc1cc2sc(NC(=O)Cc3ccccc3)nc2cc1Cl` was -2.21%; that for `Oc1ccc2ccccc2c1` was 2.96%.
Regarding `CCOC(=O)[C@@H](N)Cc1ccc(-c2cc(O[C@H](c3ccc(Cl)cc3-n3ccc(C)n3)C(F)(F)F)nc(N)n2)cc1`, the result_ITMP amounted to 2.15%.
Turning to `C[N+]1(C)CCC(OC(=O)C(O)(c2ccccc2)C2CCCC2)C1` (stereo not shown), the result_ITMP came out at 5.08%.
As for `COc1ccc(CNC(=O)c2sc3nc(C)cc(C)c3c2N)cc1`, the result_ITMP is given as 0.46%.
For `O=C(O)[C@@H]1C[C@@H](C2CCCCC2)CN1C(=O)CP(=O)(O)CCCCc1ccccc1`, the result_ITMP was -0.11%.
For the molecule `O=C(Nc1cccc(Cl)c1)c1ccccn1`, the result_ITMP was -2.47%.
For `CN(C(=O)CN1C(=O)COc2cc(Cl)c(Cl)cc21)[C@@H](CN1CCCC1)c1ccc(-c2cccc(C(N)=O)c2)cc1`, the result_ITMP was determined as 41.8%.
As to `Clc1ccc(CCC(Cn2ccnc2)Sc2c(Cl)cccc2Cl)cc1` (stereo not shown), the result_ITMP stood at 15.2%.
The same measure for `N[C@H](C(=O)O)c1ccc(O)c(C(=O)O)c1`: -2.54%; for `CN(C)C(=O)Nc1cccc(-c2ccc(N(C)C)cc2)c1`: -8.09%; for `N#Cc1ccc(C(c2ccc(C#N)cc2)n2cncn2)cc1`: -0.05%.
As to `CC(=O)NC[C@H]1CN(c2ccc(-c3ccc(CNCc4cnn[nH]4)cc3)c(F)c2)C(=O)O1`, the result_ITMP is reported as -4.98%.
With `CC(=O)OCC(=O)[C@H]1CC[C@H]2[C@@H]3CC[C@H]4C[C@H](O)CC[C@]4(C)[C@H]3C(=O)C[C@]12C`, the result_ITMP is given as -8.55%.
The same measure for `O=C(O)Cc1ccc(-c2ccccc2)cc1`: -2.18%; for `CC(C)N(C[C@H]1O[C@@H](n2cnc3c(N)ncnc32)[C@H](O)[C@@H]1O)C1CC(CCc2nc3cc(C(C)(C)C)ccc3[nH]2)C1` (stereo partly shown): -3.75%.
On to `O=C(O)c1cn(-c2ccc(F)cc2)c2cc(N3CCNCC3)c(F)cc2c1=O`, for which the result_ITMP is listed as -2.73%.
The value for `Fc1ccc2nc(CCC#Cc3ccccn3)cn2c1` was -0.93%; that for `NS(=O)(=O)Nc1ncnc(OCCOc2ncc(Br)cn2)c1-c1ccc(Br)cc1` was -0.48%; that for `C[C@@H](NCc1cc(Br)cc2[nH]c(=O)c(=O)[nH]c12)P(=O)(O)O` was -1.62%.
Consider `c1ccc(-c2ncc(CN3CCN(c4ncccn4)CC3)[nH]2)cc1`, for which the result_ITMP was 3.76%.
Regarding `CN1CCN(Cc2ccc(Nc3ncc(Cl)c(Nc4ccccc4S(=O)(=O)N(C)C)n3)cc2)CC1`, the result_ITMP is reported as 1.65%.
Take `COC(=O)c1ccc2c(c1)nc(NC(=O)c1ccccc1)n2CCCc1ccccc1`: the result_ITMP is reported as -2.38%.
Regarding `O=S(=O)(F)Cc1ccccc1`, the result_ITMP was -2.82%.
On to `Oc1ncc(F)cn1`, for which the result_ITMP is -8.73%.
In the case of `c1ccc(NCc2ccc(CNc3ccccn3)cc2)nc1`, the result_ITMP is listed as 2.9%.
The same measure for `COc1ccc(CN2C(=O)C(=O)c3cc(OC(F)(F)F)ccc32)cc1`: 1.71%.
For the molecule `Cc1ccccc1OCC(O)CNCCOc1ccc(C(N)=O)cc1` (stereo not shown), the result_ITMP is 8.71%.
The same measure for `O=C(O)c1cc2occc2[nH]1`: -4.85%; for `Cc1nnc(C(=O)NC(C)(C)c2nc(C(=O)NCc3ccc(F)cc3)c(O)c(=O)n2C)o1`: -6.05%; for `OCCNCCCOc1cccc(Cl)c1Cl`: 55.4%.
Turning to `O=C(Nc1ccc(Cl)cc1)Nc1ccc(Cl)c(Cl)c1`, the result_ITMP is -9.98%.
As to `CN[C@@H](C)C(=O)N[C@H](C(=O)N1CCC[C@H]1c1nc(C(=O)c2ccc(F)cc2)cs1)C1CCCCC1`, the result_ITMP is listed as 5.58%.
With `C=Cc1cc(O)cc2nc(-c3ccc(O)c(F)c3)oc12`, the result_ITMP is recorded as -1.45%.
As for `O=C1c2c(O)cccc2Cc2cccc(O)c21`, the result_ITMP is -3.33%.
Take `CN1C(=O)C(N2CCCCC2)S/C1=C\C(=O)O` (stereo not shown): the result_ITMP is -8.42%.
For the molecule `CN1c2cc3c(cc2N=C(c2ccc(C(=O)O)cc2)c2ccccc21)C(C)(C)CCC3(C)C`, the result_ITMP was -10.3%.
Turning to `CO[C@H]1C[C@H](O[C@H]2[C@H](C)O[C@@H](O[C@@H]3/C(C)=C/C[C@@H]4C[C@@H](C[C@]5(C=C[C@H](C)[C@@H](C6CCCCC6)O5)O4)OC(=O)[C@@H]4C=C(C)[C@@H](O)[C@H]5OC/C(=C\C=C\[C@@H]3C)[C@]54O)C[C@@H]2OC)O[C@@H](C)[C@@H]1O`, the result_ITMP is listed as 2.09%.
With `O=c1c(-c2ccc(O)cc2)coc2c(C3OC(CO)C(O)C(O)C3O)c(O)ccc12` (stereo not shown), the result_ITMP is given as -3.26%.
As for `CC[C@H](C)[C@H](NC(=O)[C@H](CCC(=O)O)NC(=O)[C@H](CCC(=O)O)NC(=O)[C@H](Cc1ccccc1)NC(=O)[C@H](CC(=O)O)NC(=O)CNC(=O)[C@H](CC(N)=O)NC(=O)CNC(=O)CNC(=O)CNC(=O)CNC(=O)[C@@H]1CCCN1C(=O)[C@H](CCCNC(=N)N)NC(=O)[C@@H]1CCCN1C(=O)[C@H](N)Cc1ccccc1)C(=O)N1CCC[C@H]1C(=O)N[C@@H](CCC(=O)O)C(=O)N[C@@H](CCC(=O)O)C(=O)N[C@@H](Cc1ccc(O)cc1)C(=O)N[C@@H](CC(C)C)C(=O)O`, the result_ITMP was determined as 0.65%.
The value for `O=C1C[C@@H](c2ccccc2)Oc2cc(O)cc(O)c21` was -6.76%; that for `COc1cc(C(=O)OCCCN2CCCN(CCCOC(=O)c3cc(OC)c(OC)c(OC)c3)CC2)cc(OC)c1OC` was 58.7%; that for `COc1ccc(-c2ccc3c(N4CCOC[C@@H]4C)nc(N4CCOC[C@@H]4C)nc3n2)cc1CO` was 4.71%.
The value for `C[C@H](Nc1cc2c(-c3ccc4c(c3)OCO4)noc2cn1)c1ccccc1` was 5.45%; that for `CCC1(c2cnc[nH]2)Cc2ccccc2C1` was -0.97%.
As to `Cc1cc2ncc(C(=O)NCC(C)(C)NCC(=O)N3CCC[C@H]3C#N)cn2n1`, the result_ITMP is -0.2%.
The same measure for `O=C(O)c1ccc(SSc2ccc(C(=O)O)cn2)nc1`: 3.39%; for `O/N=C/c1ccc(-c2ccc(O)c(F)c2)c(Cl)c1O`: -1.03%; for `CC[N+](C)(CC)CCOC(=O)C(O)(c1ccccc1)C1CCCCC1` (stereo not shown): 1.26%.
Take `CCCOC(=O)c1ccccc1`: the result_ITMP is -4.22%.
Turning to `CCOC(=O)c1cc(C#N)c(N2CCC(C(=O)NS(=O)(=O)Cc3ccccc3)CC2)nc1C`, the result_ITMP was 0.54%.
On to `CN1C2C=C(c3sccc3Br)CC1CC2` (stereo not shown), for which the result_ITMP was found to be 6.82%.
With `COc1cc(N2CCOCC2)ccc1Nc1ncc(Cl)c(Nc2ccccc2NS(C)(=O)=O)n1`, the result_ITMP was 51.4%.
